# Source: PubChem BioAssay (NCATS)
# Several values for one entry are separate records, joined by “and”; a condition that tells them apart may be missing. Equal entries are not always repeated. This list was built around the results that the source calls inconclusive (neither active nor inactive); the mix of calls is not that of the screen. Where the call is inconclusive, the potency comes from a doubtful curve fit. Activity calls are given as the source filed them. Calls come from the whole dose curve; as a rule, active = well fitted curve in the direction sought with a large enough effect; inconclusive = small, poorly fitted or top-dose-only effect, or another doubt; inactive = no such curve, though single readings can be large; an effect the other way counts as inactive or inconclusive.
# Experiment: qHTS Assay for Identifying Gametocytocidal Compounds (AID 743244);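 for max response: % is set by controls: 0 for no effect and ±100 for the full control effect; actives lower the fluorescent signal which means gametocytes are killed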
# Conditions: P. falciparum 3D7 stage III-V gametocytes, alamarBlue, 72 h; max response: active compounds read low
# How it was run: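 3D7 gametocytes, stages III–V, 20,000/well; cpd 72 h, 37 °C/5% CO2; + alamarBlue 24 h; fluor. Ex 525/Em 598.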
# Potency is the fitted concentration of half-maximal effect; tags give direction and shape of the fitted curve.
Compound,Potency,max response
CNCCCC12CCC(c3ccccc31)c1ccccc12,"inconclusive: 35.5 µM [inhibitor, single point] and inconclusive: 3.55 µM [inhibitor, single point]",
O=C(NC(Cc1cc(=O)[nH]c2ccccc12)C(=O)O)c1ccc(Cl)cc1 (stereo not given),,inactive: 22.1%
CN(C)CCc1c[nH]c2ccc(Cn3cncn3)cc12,,inactive: -0.403%

# Experiment: qHTS Screen of the MIPE 4.0 Collection Against Ewings Sarcoma (RDES) (AID 1259252); note: nearly all actives have a fitted effect of over 35% in size;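 for viability (percent of control): 100% = DMSO-treated cells and 0% = medium-only wells without cells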
# Conditions: RD-ES Ewing sarcoma viability, CellTiter-Glo, 48 h; series mostly up to 45.8 µM; viability (percent of control): at the top concentration
# How it was run: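 Cells plated in serum-containing RPMI (5% FBS) and treated with compound dilutions for 48 h. Readout luminescent viability; normalization relied on vehicle (no inhibition) and media-only columns (full inhibition).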
Compound,Potency,viability (percent of control)
CN(C)c1ccc(C2Nc3ccc4ccccc4c3C3=C2C(=O)CC(C)(C)C3)cc1Br (stereo not given),"inconclusive: 33.2 µM [inhibitor, single point]",
Cc1cc(C(=O)NOCCO)c(Nc2ccc(I)cc2F)n(C)c1=O,,inactive: 111%
COc1cccc([C@@H](C)NCCCc2ccccc2Cl)c1,"inconclusive: 37.2 µM [inhibitor, single point]",
CN1CCN(Cc2ccc(NC(=O)Nc3ccc(Oc4cc(NC(=O)C5CC5)ncn4)cc3)cc2C(F)(F)F)CC1,active: 0.372 µM,
CC(=O)OCC(=O)[C@@]12N=C(C)O[C@H]1C[C@H]1[C@@H]3CCC4=CC(=O)C=C[C@]4(C)[C@@H]3[C@@H](O)C[C@@]12C,,inactive: 103%
Nc1nc2c(ncn2COCCO)c(=O)[nH]1,,inactive: 116%
C[C@]12CC[C@@H]3c4ccc(O)cc4C[C@@H](CCCCCCCCCS(=O)CCCC(F)(F)C(F)(F)F)[C@H]3[C@H]1CC[C@H]2O (stereo not given in full),"inconclusive: 0.105 µM [inhibitor, full curve, poor fit]",
C[N+]1(C)[C@@H]2CC(OC(=O)[C@H](CO)c3ccccc3)C[C@H]1[C@H]1O[C@@H]12 (stereo not given in full),,inactive: 116%
COc1ccc(-c2oc3c(CC=C(C)C)c(OC4O[C@H](CO)[C@@H](O)[C@H](O)[C@@H]4O)cc(O)c3c(=O)c2OC2O[C@@H](C)[C@H](O)[C@@H](O)[C@@H]2O)cc1 (stereo not given in full),"inconclusive: 33.2 µM [inhibitor, single point]",
CNCCCC12CCC(c3ccccc31)c1ccccc12,"inconclusive: 23.5 µM [inhibitor, partial curve, poor fit]",
Cc1ccn(-c2ccc(-c3ncco3)cc2)c(=O)c1-c1ccc2nc(N)ncc2c1,"inconclusive: 14.8 µM [inhibitor, partial curve]",
O=C(NC(Cc1cc(=O)[nH]c2ccccc12)C(=O)O)c1ccc(Cl)cc1 (stereo not given),"inconclusive: 33.2 µM [inhibitor, single point]",
CCCCC[C@H](O)C=C[C@H]1[C@H](O)CC(=O)[C@H]1CC=CCCCC(=O)O,,inactive: 126%
CN(C)CCc1c[nH]c2ccc(Cn3cncn3)cc12,,inactive: 95.7%
CC(=O)OC1C(C)OC(Oc2c(-c3ccc(O)cc3)oc3cc(O)cc(O)c3c2=O)C(O)C1OC(C)=O (stereo not given),"inconclusive: 16.6 µM [inhibitor, partial curve, poor fit]",
COC1CCC(N(C(=O)C2CCC(C)CC2)c2cc(C3=CCCCC3)sc2C(=O)O)CC1 (stereo not given),"inconclusive: 20.9 µM [inhibitor, partial curve, poor fit]",
c1ccc2c(Oc3nc(Nc4ccc(N5CCOCC5)cc4)c4ncn(C5CCCCC5)c4n3)cccc2c1,,inactive: 105%
NS(=O)(=O)c1ccc(Nc2nc(OCC3CCCCC3)c3[nH]cnc3n2)cc1,active: 5.9 µM,
Cc1ccc(-n2[nH]c(C)c(N=Nc3cccc(-c4cccc(C(=O)O)c4)c3O)c2=O)cc1C,active: 18.7 µM,

Compound,Potency,viability (percent of control)
COc1ccc(-n2c(C)c([N+](=O)[O-])c3ccc(O)cc32)cc1,"inconclusive: 1.05 µM [inhibitor, full curve, poor fit]",
CCC(C)n1ncn(-c2ccc(N3CCN(c4ccc(OC[C@H]5CO[C@](Cn6cncn6)(c6ccc(Cl)cc6Cl)O5)cc4)CC3)cc2)c1=O (stereo not given in full),"inconclusive: 0.833 µM [inhibitor, full curve, poor fit]",
CCCCC(C=O)NC(=O)C(CC(C)C)NC(=O)OCc1ccccc1 (stereo not given),"inconclusive: 6.62 µM [inhibitor, partial curve, poor fit]",
O=c1[nH]c(=O)n(C2CCCO2)cc1F (stereo not given),,inactive: 108% [at 92.2 µM]
N#CC(=Cc1ccc(O)c(O)c1)C(=O)NCc1ccccc1,active: 23.5 µM,
CCn1cc(C(=O)O)c(=O)c2cc(F)c(N3CCNCC3)nc21,,inactive: 115%
COc1cc(C(C)C)c(Oc2cnc(NC(CO)CO)nc2N)cc1I,active: 0.935 µM,
CCOC(=O)C1=C(N)Oc2ccc(Br)cc2C1C(C#N)C(=O)OCC (stereo not given),"inconclusive: 5.26 µM [inhibitor, partial curve, poor fit]",
O=C(N[C@H](CO)[C@H](O)c1ccc([N+](=O)[O-])cc1)C(Cl)Cl,,inactive: 127%
Cc1ncc([N+](=O)[O-])n1CCO,,inactive: 114%
COc1cc(C(=O)NC2CCN(C)CC2)ccc1Nc1ncc2c(n1)N(C1CCCC1)CCC(=O)N2C(C)C,active: 2.35 µM,
CN[C@@H](C)C(=O)N[C@H]1CCCC[C@H]2CC[C@@H](C(=O)N[C@@H](c3ccccc3)c3cn(CCCCc4ccc(CCCCn5cc([C@@H](NC(=O)[C@@H]6CC[C@@H]7CCCC[C@H](NC(=O)[C@H](C)NC)C(=O)N76)c6ccccc6)nn5)cc4)nn3)N2C1=O,"inconclusive: 33.2 µM [inhibitor, single point]",
CN1CCN(c2cccc(Nc3nc4c(-c5ccc(S(C)(=O)=O)cc5)cccn4n3)c2)CC1,active: 3.72 µM,
CNC(=O)c1cc(Oc2ccc(NC(=O)Nc3ccc(Cl)c(C(F)(F)F)c3)c(F)c2)ccn1,"inconclusive: 20.9 µM [inhibitor, partial curve]",
CCN(C(=O)c1c(O)c2c(Cl)cccc2n(C)c1=O)c1ccccc1,,inactive: 117%
CCCCCCCCCCCC(CC1OC(=O)C1CCCCCC)OC(=O)C(CC(C)C)NC=O (stereo not given),,inactive: 128%
C[C@@]1(C(=O)Nc2ccc(F)nc2)CCCN1c1nc(Nc2cc(C3CC3)[nH]n2)c2cccn2n1,active: 2.64 µM,
Cc1nccn1CC1CCc2c(c3ccccc3n2C)C1=O (stereo not given),"inconclusive: 18.7 µM [inhibitor, partial curve, poor fit]",
